Results taken from PMC4336329 (PLoS ONE, 2015).
About 2,200 (0.71%) of roughly 310,000 compounds showed an effect of 50% or more. The effect is printed as a negative number. The list shows a part of the results.

Target: human ether-à-go-go-related gene (hERG) potassium channel (human, UniProt Q12809)
Experiment: primary screen, population patch clamp on CHO cells stably expressing hERG

Chain of human ether-à-go-go-related gene (hERG) potassium channel (Q12809 whole entry, looked up): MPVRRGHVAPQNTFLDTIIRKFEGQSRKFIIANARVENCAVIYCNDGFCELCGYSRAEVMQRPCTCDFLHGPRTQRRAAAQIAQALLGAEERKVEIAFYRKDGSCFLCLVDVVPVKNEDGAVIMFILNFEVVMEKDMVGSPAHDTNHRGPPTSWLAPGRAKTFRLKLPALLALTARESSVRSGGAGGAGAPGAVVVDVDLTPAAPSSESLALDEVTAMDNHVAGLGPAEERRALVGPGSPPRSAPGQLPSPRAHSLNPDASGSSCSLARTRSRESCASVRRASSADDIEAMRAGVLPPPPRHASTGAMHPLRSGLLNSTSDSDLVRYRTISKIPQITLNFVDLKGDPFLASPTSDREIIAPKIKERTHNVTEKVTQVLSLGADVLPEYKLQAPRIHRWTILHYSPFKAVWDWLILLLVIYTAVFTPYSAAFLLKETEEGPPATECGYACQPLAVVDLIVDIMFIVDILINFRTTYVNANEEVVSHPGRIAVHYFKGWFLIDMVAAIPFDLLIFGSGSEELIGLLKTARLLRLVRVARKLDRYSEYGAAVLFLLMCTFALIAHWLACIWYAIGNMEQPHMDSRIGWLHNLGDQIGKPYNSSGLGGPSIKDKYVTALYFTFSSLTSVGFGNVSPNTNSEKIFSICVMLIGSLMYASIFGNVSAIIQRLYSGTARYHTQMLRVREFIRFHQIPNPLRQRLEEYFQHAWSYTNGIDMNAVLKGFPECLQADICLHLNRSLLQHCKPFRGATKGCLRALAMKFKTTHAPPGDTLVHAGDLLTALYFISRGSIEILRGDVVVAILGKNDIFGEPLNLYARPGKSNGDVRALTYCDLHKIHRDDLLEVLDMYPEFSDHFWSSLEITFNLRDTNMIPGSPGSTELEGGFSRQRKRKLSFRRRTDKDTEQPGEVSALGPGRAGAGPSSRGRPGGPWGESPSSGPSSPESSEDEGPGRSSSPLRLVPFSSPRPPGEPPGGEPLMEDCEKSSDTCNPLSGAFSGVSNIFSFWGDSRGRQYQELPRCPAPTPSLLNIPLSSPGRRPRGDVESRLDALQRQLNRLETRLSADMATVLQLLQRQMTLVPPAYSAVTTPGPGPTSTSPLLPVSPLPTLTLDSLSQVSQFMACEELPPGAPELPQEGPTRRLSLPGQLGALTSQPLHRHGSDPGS

| Compound | hERG current change (%, negative = inhibition) at 1uM [%] |
| --- | --- |
| CN(C)S(=O)(=O)c1ccc(N2CCN(S(=O)(=O)c3ccc(F)cc3)CC2)c(Cl)c1 | 9.5 |
| O=C(C1=C[C@H](c2ccccc2)C[C@H](OCc2ccc(CO)cc2)O1)N1CCN(Cc2ccc3c(c2)OCO3)CC1 | -10.2 |
| COc1cccc(CNS(=O)(=O)c2cccc(S(=O)(=O)N3CCOCC3)c2)c1 | 8.94 |
| CC(C)NC(=O)CSc1nc2ccccc2n1-c1ccccc1 | 9.59 |
| CCn1cc(C(C)(C)C)c(C#N)c1NC(C)=O | 3.92 |
| CCN1C(=O)c2ccc(C(=O)NCc3ccc4c(c3)OCO4)cc2C1=O | -5.44 |
| CC(C)Nc1nc(Oc2ccc(Cl)cc2Cl)cc(C(F)(F)F)n1 | 7.4 |
| Cc1ccc(CN2CCNC(=O)C2CC(=O)N(C)C2CCCCC2)cc1 (stereo not drawn) | 8.49 |
| CC(Oc1ccc(F)cc1)C(=O)Nc1sc2c(c1C(=O)NCc1cccnc1)CCCC2 (stereo not drawn) | -1.6 |
| Cc1noc(C)c1S(=O)(=O)N(CC(=O)NCc1ccc2c(c1)OCO2)c1ccc(C(C)C)cc1 | 10.2 |
| COc1ccc(N(CC(=O)NCc2ccc3c(c2)OCO3)C(=O)CCC(=O)Nc2ccccn2)cc1 | 14.8 |
| C[C@@H]1CC[C@@]23COC(=O)C2=CCC[C@@H]3[C@@]1(C)CC/C(=C/CO)CO | 10.2 |
| COc1ccc2c(c1)cc(C(=O)N[C@@H](Cc1ccccc1)C(=O)N[C@@H](C)C(=O)O)n2C | 14.1 |
| COC(=O)c1cc(NC(=O)c2cccc(F)c2)cc(C(=O)OC)c1 | 12.2 |
| CCCCn1c(N)c(N(CCOC)C(=O)COC(=O)COc2c(C)cccc2C)c(=O)[nH]c1=O | 6.64 |
| CNC(=O)/C(C#N)=c1\s/c(=C/C(=O)OC)c(=O)n1-c1ccccc1 | 16.4 |
| COc1ccccc1OCCCn1cc(C=O)c2ccccc21 | 11 |
| O=C(O)CCN1C(=O)c2ccc(NC(=O)COc3ccccc3)cc2C1=O | 14.4 |
| CC(=O)N1c2ccc(S(=O)(=O)N(C)CC(=O)N(C)Cc3ccccc3)cc2CC1C (stereo not drawn) | 10.2 |
| CCc1nnc(NC(=O)c2sc3nc(C)cc(COC)c3c2N)s1 | -0.926 |
| CC(C)c1nnc(NC(=O)c2ccc3c(c2)OCO3)s1 | 4 |
| COc1ccc(/C=C2\Sc3ccc(C(=O)NCc4cccnc4)cc3N(C)C2=O)cc1OC | 4.76 |
| COc1ccc(NC(=O)CSc2nnc(CC(=O)Nc3ccc(F)cc3)n2C)cc1 | 8.65 |
| CCOC(=O)c1cc(-c2ccncc2)nc2c1c(C)nn2-c1ccccn1 | -18.1 |
| Cc1ccccc1C(=O)Nc1ccc(C(=O)N/N=C/c2ccc(O)cc2)cc1 | 19 |
| Cc1nnc(SCC(=O)N2CCC(c3noc4ccc(F)cc34)CC2)s1 | -9.72 |
| COc1ccccc1-n1cnnc1SCC(=O)N1CCN(C(=O)c2ccco2)CC1 | 7.03 |

| Compound | hERG current change (%, negative = inhibition) at 1uM [%] |
| --- | --- |
| CC(C)CCNC(=O)c1onc(CSc2nc3ccccc3[nH]2)c1C(=O)NCCC(C)C | 4.61 |
| COc1ccc(OC(C)C(=O)NC2CCCCCC2)cc1 (stereo not drawn) | 9.61 |
| CCn1c(/C=N/n2cnnc2)nc2ccccc21 | 5.93 |
| COc1ccccc1-c1c(C(F)(F)F)oc2cc(OC(=O)c3cccc([N+](=O)[O-])c3C)ccc2c1=O | 17.2 |
| Cc1cc(NC(=O)c2ccc([N+](=O)[O-])cc2)no1 | 13.7 |
| CC(=O)c1ccc(C(=O)NC2CCCN(Cc3ccc(Cl)cc3)C2)s1 (stereo not drawn) | -28.7 |
| Cc1cccn2c(=O)c(C=C(C#N)C#N)c(N3CCN(C)CC3)nc12 | 11.8 |
| COc1ccc(NC(=O)COC(=O)/C=C/c2cccs2)c(OC)c1 | -2.57 |
| CC(C)(C)c1nn2cnnc2n(/N=C/c2ccc(O)cc2)c1=O | -1.39 |
| COc1ccc(CCNC(=O)CNS(=O)(=O)c2ccc(Br)cc2)cc1 | 12 |
| CC1=CC(c2ccc(Cl)cc2)n2ncnc2N1 (stereo not drawn) | 8 |
| CCc1ccccc1NC(=O)NNC(=O)CCc1ccc(OC)cc1 | 16.3 |
| CC1CCCCC1NS(=O)(=O)CCNC(=O)c1ccccc1 (stereo not drawn) | 10.2 |
| N#Cc1c(F)cccc1N1CCOCC1 | 15.1 |
| COc1ccc(S(=O)(=O)Nc2ccc(NC(C)=O)cc2)cc1Cl | 10.3 |
| O=C(OC(c1ccccc1)c1nccc2ccccc12)c1cc([N+](=O)[O-])cc([N+](=O)[O-])c1 (stereo not drawn) | 19.3 |
| C[C@H](N)c1nnc(SCC(=O)N(C)C)o1.Cl | 2.17 |
| O=C1c2ccccc2C(=O)N1CCCCON1C(=O)c2ccccc2C1=O | 10.3 |
| O=C(Cn1c(=O)sc2ccccc21)Nc1ccc(O)cc1 | 12.2 |
| COc1ccccc1-c1cc(C(=O)Nc2c(F)cc(F)cc2Br)no1 | -2 |
| COc1ccc2cnnc(SCC(=O)Nc3ccc(C(=O)O)cc3)c2c1OC | 2.85 |
| Cn1cnc([N+](=O)[O-])c1Sc1ccc(C(C)(C)C)cc1 | 4.26 |
| Cc1cc(C)c(S(=O)(=O)N2CCCOC2CNC(=O)C(=O)NCCC2=CCCCC2)c(C)c1 (stereo not drawn) | 9.54 |
| Cc1cccc(Nc2nc(NCc3ccco3)nc(N3CCOCC3)n2)c1 | -18 |
| COc1ccccc1NC(=O)N1CCc2[nH]c3ccc(Cl)cc3c2C1 | 4.85 |
| COC(=O)c1ccc(NC(=S)N2CCN(Cc3ccccc3OC)CC2)cc1 | 6.63 |
| Cc1cccc(N2CCN(C(=O)c3ccccc3NC(=O)C3CC=CCC3C(=O)O)CC2)c1 (stereo not drawn) | 14.9 |
